Data from PubChem BioAssay AID445 (National Center for Advancing Translational Sciences (NCATS), 2006).
Screen size: about 110,000 compounds; about 40 (0.04%) were called active. The shares of active, inactive and inconclusive entries below differ from those in the screen. The call rests on the fitted dose curve; in most records, active means well fitted curve in the direction sought with a large enough effect in the signal ratio (not every such curve was filed as active); inconclusive means small, poorly fitted or top-dose-only effect, or a change in a side signal; inactive means flat fitted curve, though single readings scatter; the % refers to the signal ratio. A potency beside an inconclusive call is a rough fit, not a confirmed value.

Test: IkB Signaling;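 on IkBa stabilization activation: 0% = basal untreated cells and 100% = reference inhibitor full response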
Settings: ABC-DLBCL IkBa-CBG/CBR dual luciferase ratio (green luciferase fused to IkBa over red control in OCI-Ly3 lymphoma cells), 4 h; IkBa stabilization activation: at 57.1 µM (top of the series), scaled: untreated 0%, proteasome inhibitor 100% unless noted
Procedure, shortened: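 Luminescence ratio of IκBα-fused green versus native red beetle luciferase in OCI-Ly3 cells, 4 h post-doxycycline with compound; red signal alone, scaled from basal (0%) to zero light (-100%), flagged nonspecific or cytotoxic effects.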
Potency means the concentration at half of the fitted maximal effect.

Structure (SMILES)	IkBa stabilization activation	Potency
COCCN1Cc2cccc(C(=O)Nc3cc(OC)ccc3OC)c2C1=O	inactive: -0.0473%	–
COc1ccc2cc3cc(C(=O)NCC4COc5ccccc5O4)oc3nc2c1 (stereo not drawn)	inconclusive: 0.379% [signal inhibitor]	–
CCc1c(C)sc2c1CCN(Cc1ccc(F)cc1)C2c1ccccc1 (stereo not drawn)	inconclusive: 2.76% [signal inhibitor]	–
Cc1n[nH]c(=O)nc1NC1CCCCC1	inactive: 0.0804%	–
CCC(C)(C)n1nnnc1C(c1ccc(O)c(OC)c1)N1CCN(c2nc3ccccc3s2)CC1 (stereo not drawn)	–	inconclusive: 20 µM [rising, partial curve]
COCC(=O)N1CCC2(CCCN(C(=O)Nc3ccccc3)C2)CC1	inactive: 0.619% [at 11.4 µM, scaled: untreated 0%, proteasome inhibitor 100%]	–
CCN1CCN(c2ncnc3c2oc2nc(C(C)C)c4c(c23)CCC4)CC1	inactive: -3.78%	–
CCc1cccc(NC(=O)Cn2c(=O)c(C(F)(F)F)nc3ccccc32)c1	inactive: 0.296%	–
Cc1coc2cc3oc(=O)c(CC(=O)N4CCCCC4)c(C)c3cc12	inconclusive: 1.51% [signal inhibitor]	–
Cc1cc(C)c2c(=O)cc(C(=O)Nc3nc4ccc(F)cc4s3)oc2c1	inconclusive: 6.71% [signal inhibitor]	–
CCCN(CCC)CC(O)Cn1cc(/C=C/C(=O)c2ccc(OC)cc2)c2ccccc21 (stereo not drawn)	inconclusive: 1.19% [signal inhibitor]	–
CCC(CC)C(=O)Nc1c(C(=O)N2CCN(c3ccccc3)CC2)oc2ccccc12	inconclusive: -1.84% [signal inhibitor]	–
CCC(C)(C)n1nnnc1C(c1cc2ccc(OC)cc2[nH]c1=O)N1CCc2ccccc2C1 (stereo not drawn)	–	inconclusive: 31.6 µM [rising, partial curve]
O=C(Nc1ccc(F)cc1)c1ccc(Cn2nc(N3CCN(c4ccccc4)CC3)ccc2=O)o1	–	inconclusive: 25.1 µM [signal inhibitor, partial curve]
C=CCn1c(=O)[nH]c2cc(C(=O)N3CCN(c4ccc(C(C)=O)cc4)CC3)ccc2c1=O	inconclusive: 1.87% [signal inhibitor]	–
COC(=O)CC(=O)CSc1nc2c(cc1C#N)CCCCC2	inactive: -0.29%	–
Cn1c(=O)c2c(nc(CN3CCN(C(=O)c4ccco4)CC3)n2CCc2ccccc2)n(C)c1=O	inconclusive: -0.455% [signal activator]	–
COc1cccc(-c2cc(C(=O)N3CCN(c4ccccc4OC)CC3)no2)c1	inconclusive: 3.12% [signal inhibitor]	–
COc1ccc(Cl)cc1NC(=O)Cc1coc2c(C)c(C)ccc12	inconclusive: 1.72% [signal inhibitor]	–
O=C(CSc1c2c(nc3ccc(Cl)cc13)CCCC2)NCc1ccccc1Cl	inconclusive: 13.4% [signal inhibitor]	–
COc1ccc(CCNC(=O)c2cc(=O)c3cc(C)cc(C)c3o2)cc1OC	inconclusive: -0.333% [signal inhibitor]	–
O=C(OCc1ccco1)c1ccc2c(c1)N(Cc1cccc(F)c1)C(=O)c1ccccc1S2	inactive: -2.06%	–
Cc1cc(C)n(-c2ccc(C(=O)OCc3nnc(-c4ccccc4)o3)cc2)n1	inconclusive: 15.9% [signal inhibitor]	–

Structure (SMILES)	IkBa stabilization activation	Potency
CCOc1ccccc1NC(=O)CC(c1ccc(F)cc1)N1Cc2ccccc2C1=O (stereo not drawn)	inactive: -0.704%	–
O=C(c1ccccc1CCc1ccccc1)N1CCN(c2ccccn2)CC1	inactive: -3.2%	–
COc1ccc(C(C(O)C(=O)c2c[nH]c3ccccc23)N2CCN(c3ccccc3)CC2)cc1 (stereo not drawn)	inconclusive: 8.56% [signal inhibitor]	–
Cc1noc(C)c1-c1cc(NCCN2CCOCC2)ncn1	inactive: 1.84% [at 11.4 µM, scaled: untreated 0%, proteasome inhibitor 100%]	–
CCc1ccc(NC(=O)c2cc(CC(C)C)on2)cc1	inactive: -3.65%	–
CCNc1nc(OC)nc(Oc2ccc(=O)n(-c3ccccc3)n2)n1	inactive: 0.907%	–
CCOc1ccc(OCc2cccc(C(=O)N3CCOCC3)c2)cc1	–	inconclusive: 12.6 µM [signal inhibitor, partial curve]
CC1CCN(c2nc3c(-c4cccc(Br)c4)nnn3c3ccccc23)CC1	–	inconclusive: 15.8 µM [signal inhibitor, partial curve]
CC(=O)NCCn1c(SCc2ccccc2F)nc2ccccc2c1=O	inactive: -2.06%	–
COCCn1c(-c2cc(OC)c(OC)c(OC)c2)nc2oc3ccccc3c(=O)c2c1=O	inactive: -1.71%	–
COc1ccc(CNC(=O)CCc2c(C)nn(-c3ccc(N4CCCCC4)nn3)c2C)cc1	inconclusive: 9.08% [signal inhibitor]	–
CC(C)(C)n1ncc2c(=O)n(CC(=O)Nc3ccc(Cl)cc3)cnc21	inactive: 5.91%	–
O=C(NC1(C(F)(F)F)N=C(c2ccccc2)N(C2CCCCC2)C1=O)c1ccc(F)cc1 (stereo not drawn)	inconclusive: 2.24% [signal inhibitor]	–
Cc1ccc(C(=O)CC2(O)C(=O)N(Cc3ccccc3)c3ccccc32)o1 (stereo not drawn)	inconclusive: 18.2% [signal inhibitor]	–
O=C(c1cccs1)N1CCCC(c2nc(-c3ccc(F)cc3)no2)C1 (stereo not drawn)	inconclusive: 7.6% [signal activator]	–
Cn1ccc2cc(S(=O)(=O)N3CCCC(C(=O)NCc4ccc(F)cc4)C3)ccc21 (stereo not drawn)	inconclusive: 0.873% [signal inhibitor]	–
CN1CC[C@@]2(CCCN(C(=O)c3cc(C(F)(F)F)cc(C(F)(F)F)c3)C2)C1	inactive: 1.36% [at 11.4 µM, scaled: untreated 0%, proteasome inhibitor 100%]	–
Cc1ccc(-c2noc(C3CCCN(C(=O)c4c(F)cccc4F)C3)n2)cc1 (stereo not drawn)	inconclusive: 1.15% [signal inhibitor]	–
COC(=O)c1ccc(C2C=C(c3ccc(Cl)cc3)Nc3nc4ccccc4n32)cc1 (stereo not drawn)	–	inconclusive: 25.1 µM [signal inhibitor, single point]
CCOc1ccccc1-c1noc(CCCC(=O)Nc2cccc(C(F)(F)F)c2)n1	inconclusive: -1.12% [signal inhibitor]	–
O=S(=O)(O)c1cc(N=Nc2cccc3ccccc23)c(O)c2ncccc12	inactive: 1.8% [at 11.4 µM, scaled: untreated 0%, proteasome inhibitor 100%]	–
O=C(CSc1nc(-c2ccc(F)cc2)nc2c1Cc1ccccc1O2)Nc1cccc(C(=O)O)c1	inconclusive: -0.307% [signal inhibitor]	–
Cc1cc2nn(-c3ccccc3)nc2cc1NC(=O)c1cccs1	inactive: 1.97%	–

Structure (SMILES)	IkBa stabilization activation	Potency
Cc1ccc2c(c1)c(=O)c(C(=O)c1ccccc1)cn2Cc1ccccc1F	inconclusive: 0.293% [signal inhibitor]	–
COC(=O)[C@H](C)NC(=O)Nc1ccc(OC)c(OC)c1	inactive: -2.02%	–
CCOC(=O)N1CCC(N2Cc3cccc(C(=O)NCc4ccc(OC)cc4)c3C2=O)CC1	inactive: 2.97%	–
COc1ccc(NC(=O)CC2C(=O)N(c3ccccc3)C(=O)N2CCC2=CCCCC2)cc1 (stereo not drawn)	inconclusive: 0.325% [signal inhibitor]	–
CCN1C(=O)c2ccccc2S(=O)c2ccc(C(=O)NCc3ccc(C)cc3)cc21 (stereo not drawn)	inconclusive: 0.94% [signal inhibitor]	–
COc1ccc(S(=O)(=O)N(CC(=O)Nc2ccc(OC)cc2OC)c2ccc(Cl)cc2)cc1	inconclusive: 2.17% [signal inhibitor]	–
CCOC(=O)C(C(=O)OCC)C1N=C(N)N=C2Oc3ccccc3N21 (stereo not drawn)	–	inconclusive: 3.16 µM [signal inhibitor, full curve]
CCC1CN(C(=O)Nc2ccccc2C(F)(F)F)c2ccccc2O1 (stereo not drawn)	inconclusive: -0.924% [signal inhibitor]	–
COc1ccc(C(=O)Nc2cc(-c3nn4c(C)nnc4s3)ccc2C)cc1	inactive: 3.95%	–
Cc1cccc(N2CC(c3nc4ccc(C)cc4[nH]3)CC2=O)c1 (stereo not drawn)	inconclusive: 2.01% [signal inhibitor]	–
COc1ccccc1-c1nc2c(c(SCC(=O)Nc3ccccc3F)n1)Cc1c(CO)cnc(C)c1O2	inactive: -2.03%	–
O=c1c(-c2cc(F)cc(F)c2)nc2cncnc2n1Cc1ccc(F)cc1	inactive: 2.97% [at 11.4 µM, scaled: untreated 0%, proteasome inhibitor 100%]	–
COc1ccccc1C(=O)Nc1c(C(=O)N2CCN(c3ccc(F)cc3)CC2)oc2ccccc12	inconclusive: 1.2% [signal inhibitor]	–
COc1ccc(NC(=O)C2CCCN(C(=O)c3cnn(-c4ccccc4)c3-n3cccc3)C2)cc1 (stereo not drawn)	inconclusive: 0.489% [signal inhibitor]	–
CCC(C)NC(=O)C1CC(c2cccc(OC)c2)=NO1 (stereo not drawn)	inactive: 0.551%	–
Cc1cn(C)c(CC(=O)N2CCN(c3cccc(C(F)(F)F)c3)CC2)c1C(=O)O	inactive: -0.141%	–
O=C(NCC(c1cccnc1)N1CCc2ccccc21)c1ccc(F)c(F)c1 (stereo not drawn)	inconclusive: 0.448% [signal inhibitor]	–
Cc1cnn(-c2nc(-c3cccs3)cc(C(F)(F)F)n2)c1	inconclusive: 1.06% [signal inhibitor]	–
Cc1cccc(C(=O)Nc2cccc(OCc3cc(=O)n4cc(C)sc4n3)c2)c1	inconclusive: 11.5% [signal inhibitor]	–
Cc1ccc(C(C)C)c(OCC(=O)NCC2(N3CCOCC3)CCCCC2)c1	inconclusive: 1.15% [signal inhibitor]	–
Clc1ccc(-c2nc(NCCN3CCOCC3)c3ccccc3n2)cc1	inactive: 1.13%	–
Cc1ccc(-n2cc3c(c2-c2ccccc2Br)c(=O)n(C)c(=O)n3C)cc1N	inconclusive: -1.35% [signal inhibitor]	–
